T1: UNK ZnF1-3 (human, UniProt Q9C0B0 31-174)
T1 sequence: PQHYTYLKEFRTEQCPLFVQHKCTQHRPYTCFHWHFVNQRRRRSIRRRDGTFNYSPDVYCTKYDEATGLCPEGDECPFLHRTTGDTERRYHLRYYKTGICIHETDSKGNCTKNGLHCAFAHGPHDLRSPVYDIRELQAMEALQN

B1: chr7:149068622:149068623:-_ENSMUSG00000025139_ENSMUST00000001950|mus_hu|mus_mus_mus_hu_False|18_68 (ssRNA)
RNA: GGGAGUUCUACAGUCCGACGAUCGUGAGGCCUCUGAGUGUGGCUUGUGGUCUGUCCUGGGUUAGAGCUGCUGGUAACACGGAACAUACCAUCUAGAACGUUCCAGUCCCGCCUGACCAUCCACCCUCCAAUGGAGAAGAAAUCCAACAGAGGAUUGAGCAUCA
B2: 149462202_149462322_2395_CDS_ENSMUSG00000003452_ENSMUST00000086829|mouse|control|control (ssRNA)
RNA: GGGAGUUCUACAGUCCGACGAUCUAAGGCUUCCUUGUCCUUAUCAAUCAUGGGGGCCAACUCUCGGGCUGCUGCUCUUUGACGAGACAGCUGUAAGGACCUGUCCACUGCCUUCUGCAGAUGCUUGAUUUGGUCCCGGAUUAUCAACAGAGGAUUGAGCAUCA
B3: chr16:45382771:45382772:-_ENSMUSG00000022661_ENSMUST00000163230|mus_mus|mus_mus_mus_hu_True|58_88 (ssRNA)
RNA: GGGAGUUCUACAGUCCGACGAUCCUGGGUCAUGUUAUAAGACAAAUGGAUAGGGAGGGCAUGCUUCUCAAAAAAUGUGAACUACUCUCUAAGACUAACAAUAUUUAUCUAGCUAUAAAAAUAAGUUAAAUGAAUAAGUUAAGACAACAGAGGAUUGAGCAUCA
B4: chr15:66793332:66793333:-_ENSG00000174444_ENST00000568588|hu_hu|FALSE|FALSE (ssRNA)
RNA: GGGAGUUCUACAGUCCGACGAUCCAUGGGAAGAUUGUAGUUACUCUUGAGGGAAGCGGCUUUACGCCAAGUGCCGUACAAUUCAUCUAACUUCCGGAAAGCACUUUCAGUCCAAAUGCAGAAACGUCCCACAUGCCCACCAGGCAACAGAGGAUUGAGCAUCA
B5: chr9:79616815:79616816:-_ENSMUSG00000032328_ENSMUST00000034878|mus_hu|motif|central (ssRNA)
RNA: GGGAGUUCUACAGUCCGACGAUCAAGACACCUGAACAUAGCAAAAUUAAUUUUGUUCAUUUUUAUUAACAUAGGACAUACGGACCAAAUAUUAUCAUUUAAUAAAAUCAACGUUACAAAGAAACUCACUAGCAAAUAAACAAACAACAGAGGAUUGAGCAUCA
B6: chr4:76721835:76721836:+_ENSG00000138768_ENST00000264904|hu_mus|hu_hu_hu_mus_True|1_68 (ssRNA)
RNA: GGGAGUUCUACAGUCCGACGAUCGUUUGGCUGGGGUUUCUGAGACGCUCUGGAAUAUAACUCAUGUUGCUAAUAAAAUCCUAGUUUCUCUAUGAAAUUCUCUUUGCCAAUCCUCUUCUCUAUUAGUUGCUUUAGUUCUCUUUCCAACAGAGGAUUGAGCAUCA
B7: chr18:21054979:21054980:+_ENSG00000101782_ENST00000339486|hu_mus|motif|central (ssRNA)
RNA: GGGAGUUCUACAGUCCGACGAUCCUUUACUUCUUUUAAUUUAGGGGCUGGAACUUGAUCAUGGCCAAUGAAAGACAUAACGGAAAUGUGCUUCUUAAGCAGUACAACUGUUGGACAAGGAAUUCCAGCCUUCUGCAUUCUUGUCAACAGAGGAUUGAGCAUCA
B8: chr16:94664741:94664742:+_ENSMUSG00000040785_ENSMUST00000117648|mus_hu|mus_mus_mus_hu_False|58_98 (ssRNA)
RNA: GGGAGUUCUACAGUCCGACGAUCUGGUACUGAUCUUUGCAUUGGAUAUUCAGGAGAAAGGCUGGCCAAGGGUGUAUAAAUGCUAGUGUACUGGGGCAAACCUGGUAACACGUUUAUGUAUGCUGGCGGUGUCUGGGUGAUAUCCAACAGAGGAUUGAGCAUCA
B9: chr14:66209396:66209397:-_ENSMUSG00000022031_ENSMUST00000022609|mus_hu|FALSE|FALSE (ssRNA)
RNA: GGGAGUUCUACAGUCCGACGAUCAGAUCGAUGUCUUUCCCCUGCUCGUGGGCUUCAAUCAGUUGUUUAAUAACAUCUCCUAUAGUCAGCAUCAUCAGCUCAGCAGGGCUGAGAUCUCCAGACUAUGGAGGAUUCACCACCAGACAACAGAGGAUUGAGCAUCA
B10: 57735978_57736098_412_3pUTR_ENSG00000053770_ENST00000261558|human|control|control (ssRNA)
RNA: GGGAGUUCUACAGUCCGACGAUCUCUCACGGUGCCACAAAGUGGAGUUCCCGGUUCGUGGCUUAUGAGCCACACUGCCCGCUGCGCCAUGGUUAAGUCAGUAAAGCAUUAGCUCAUCUCAUAAUUAAGGUCGCCACCGAGGAACAACAGAGGAUUGAGCAUCA
B11: chr6:30401018:30401019:+_ENSMUSG00000029775_ENSMUST00000068259|mus_hu|FALSE|FALSE (ssRNA)
RNA: GGGAGUUCUACAGUCCGACGAUCGAUGAUGUUUUAAUUUCUAGAAUAUUGUAUGACAUGGAACUAUUCAGAAUUCCUUUAAAAAGGAAUCUGUCUUGAUUAAUAACAUUAUUAAGGUACUUUCAGGCUUUCCCUUAACUCCAUCAACAGAGGAUUGAGCAUCA
B12: chr14:89307221:89307222:+_ENSG00000165533_ENST00000346301|hu_mus|hu_hu_hu_mus_False|88_108 (ssRNA)
RNA: GGGAGUUCUACAGUCCGACGAUCUCCUGUCUGAUUAGUGCCAGGGAGUUUCAAAGAUGUGCCAGGGCGUGGGACCUGAGCAAUAGCAUUUUCAUCCAGGAUCAUUUCAGCAAUUCCUUCCUGGUCCACAUCAAUUUCAUCUAUCAACAGAGGAUUGAGCAUCA
B13: chr14:66974463:66974464:+_ENSMUSG00000022044_ENSMUST00000074523|mus_hu|mus_mus_mus_hu_False|28_108 (ssRNA)
RNA: GGGAGUUCUACAGUCCGACGAUCUUGUAGGAUGAUUUAUUCAGGGGAUCGGCCAGGAAGCAGGAGCAGAACAAGGACACCAGCGGGAGCUCCUUCAUCUUCUCUUUAUAGGCUGCAAGGGUCAUGUUUCUGGGAUCUGGUGGCCAACAGAGGAUUGAGCAUCA
B14: 102296270_102296390_440_3pUTR_ENSG00000166135_ENST00000299163|human|control|control (ssRNA)
RNA: GGGAGUUCUACAGUCCGACGAUCCCUGCAGUUUCUCAACGAACUCAUGAAAUUUCAUUUCUUCCCUGUUGGACCUCGGCUUAAAGUUCUGGAAAUUGGCCAUCUUCUUCUCAUCAUAGUACAAGAACUUGUGGGUGCUGGCACCAACAGAGGAUUGAGCAUCA
B15: chr2:127629987:127629988:-_ENSMUSG00000027379_ENSMUST00000028858|mus_mus|FALSE|FALSE (ssRNA)
RNA: GGGAGUUCUACAGUCCGACGAUCACCAGAUGUUUCACAUUUUCCUGUAAAUACAGUUCCUUUAGGGAAAAGUUUCAUAUCUAUACUCUGACCCAGGUCAAUCAAUGCCAAGCCGGUAGCUAAGUCUUCAUCAGCCUGUUCCAACAACAGAGGAUUGAGCAUCA
B16: chr5:145557987:145557988:+_ENSMUSG00000045482_ENSMUST00000132925|mus_hu|FALSE|FALSE (ssRNA)
RNA: GGGAGUUCUACAGUCCGACGAUCCAGUUUCAAUGGCCUUCUCCAUGGGGAGCUGGAGAGAAGCUUUGCAGUCGGAAAACUCCACAGUGAUGCUGGGGCCCUGAACCUCGGUCACAACGUAGUGCAGCUUCUGCGACUCCUUCACAACAGAGGAUUGAGCAUCA
B17: 88886798_88917630_1775_CDS_ENSMUSG00000053333_ENSMUST00000065694|mouse|control|control (ssRNA)
RNA: GGGAGUUCUACAGUCCGACGAUCAGUAAAAGCAAGCUUCAGCUGAUCUAAACGGAGUGCGCCAUCUACAAAGCGCUGGCGGCGGAGUUGCUUUGCAAUGCUGUGCAGGUUCAGGACUGCCUGGUGCACCUCCUCGACGCUGUGCAACAGAGGAUUGAGCAUCA
B18: chr11:107549074:107549075:+_ENSMUSG00000020721_ENSMUST00000106746|mus_mus|FALSE|FALSE (ssRNA)
RNA: GGGAGUUCUACAGUCCGACGAUCUAAUGAUAUCCCUCAAACAAGCAAUUAGAAAGAUCUUAGAAUUGCUCUGUGUAUGUAACAUCUUAGAAAGAUCUUAGAAUUGCUCUGUGUAGGUCACAUCAUCUUAACGUAAACAUCAAUCAACAGAGGAUUGAGCAUCA
B19: 50803853_50803973_910_CDS_ENSG00000008196_ENST00000393655|human|control|control (ssRNA)
RNA: GGGAGUUCUACAGUCCGACGAUCGAGAGAUGCAUUGAGGCAUUCAGGGGGCGACAGCCGUCUCUGAACUUCUCCCACAGUUACUUUGUACUUCGAAGUUGAACUGAGCAGAGACAAACGGCCUGGGACGGAGCAAAACACCUCCAACAGAGGAUUGAGCAUCA
B20: chr5:173380165:173380166:+_ENSG00000113742_ENST00000334035|hu_mus|motif|central (ssRNA)
RNA: GGGAGUUCUACAGUCCGACGAUCCACCCGUUUAUCUAUCUCUCCAUGCUGCAGCUGAACAAAGCGGGCACUGAUAGCAGCGGUGUAACUCUGUUGAUUAGAAAACGCGACUCUUCCAGCUCCUUUUGGGUAUUUGAGCUCUGGCAACAGAGGAUUGAGCAUCA
B21: 6958801_6958921_424_CDS_ENSG00000111665_ENST00000229265|human|control|control (ssRNA)
RNA: GGGAGUUCUACAGUCCGACGAUCCUGUCUUGCUUCCUCCUUGGAAAACACCUGUUUGGAGGGGAACUCAGUCUGGUUCCAAGGUGGCAUCUGUUCCUCAACAGAUAACUGGGUACCCAGAGGCAAGUCCAAUUCAGAAGAUAACAACAGAGGAUUGAGCAUCA
B22: chr12:16048344:16048345:+_ENSG00000023734_ENST00000419869|hu_hu|hu_hu_hu_mus_True|18_58 (ssRNA)
RNA: GGGAGUUCUACAGUCCGACGAUCAGAUCGUCCAUAAGUAAUAACCAAAAUCUCUCCUUCAGGAAUAUACUCCAUGCUACUAACAGACAUAUUAAAAUUCAGAGAUUUCACUUCUGUCAUAGUAGCAUGAUCCCAGAGCCGAACCAACAGAGGAUUGAGCAUCA

The list shows a part of the results.

The test has as its target T1, UNK ZnF1-3. In words: nsRBNS (natural sequence RNA bind-n-seq); RBNS binding buffer (assumed for nsRBNS): 25 mM Tris pH 7.5, 150 mM KCl, 3 mM MgCl2, 0.01% Triton X-100, 500 ug/ml BSA, 20 U/ml SUPERase-In, 4 C; UNK is unkempt and MSI1 is Musashi-1; names of the RNAs are library labels; protein concentration not given here; high values mean tight binding.
Molecule B1 displayed a binding signal of 0.915 enrichment R.
For the molecule B2, the binding signal worked out at 0.288 enrichment R.
The figure for B3 is 1.86 enrichment R; for B4 it is 1.08 enrichment R.
Molecule B5 registered a binding signal of 2 enrichment R.
Turning to B6, the binding signal was found to be 0.542 enrichment R.
B7 came in with a binding signal of 0.811 enrichment R.
To B8 belongs 0.911 enrichment R; to B9, 0.852 enrichment R; to B10, 1.49 enrichment R.
Regarding B11, the binding signal was 0.911 enrichment R.
To B12 belongs 0.847 enrichment R.
The figure for B13 is 2.72 enrichment R.
Consider B14, for which the binding signal came out at 0.922 enrichment R.
In turn, B15 gave a binding signal of 0.762 enrichment R.
B16 returned a binding signal of 0.921 enrichment R.
The molecule B17 gave a binding signal of 0.966 enrichment R.
To B18 belongs 0.453 enrichment R; to B19, 1.28 enrichment R; to B20, 0.724 enrichment R.
Take B21: the binding signal is 1.02 enrichment R.
Consider B22, for which the binding signal stood at 0.672 enrichment R.

(Values after article PMC12136788.)
